Test results from publication PMC4336329 (PLoS ONE, 2015).
Hit rate of the full screen: of about 310,000 compounds, about 14,000 (4.5%) showed an effect of 50% or more. Effects have a minus sign here. This is one part of the list.

Each molecule was assayed against human ether-à-go-go-related gene (hERG) potassium channel (human, UniProt Q12809) (assay: primary screen, population patch clamp on CHO cells stably expressing hERG).
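Also: peak tail current of the secondary pulse compared with the same well before compound.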

human ether-à-go-go-related gene (hERG) potassium channel, sequence (Q12809 whole entry, looked up): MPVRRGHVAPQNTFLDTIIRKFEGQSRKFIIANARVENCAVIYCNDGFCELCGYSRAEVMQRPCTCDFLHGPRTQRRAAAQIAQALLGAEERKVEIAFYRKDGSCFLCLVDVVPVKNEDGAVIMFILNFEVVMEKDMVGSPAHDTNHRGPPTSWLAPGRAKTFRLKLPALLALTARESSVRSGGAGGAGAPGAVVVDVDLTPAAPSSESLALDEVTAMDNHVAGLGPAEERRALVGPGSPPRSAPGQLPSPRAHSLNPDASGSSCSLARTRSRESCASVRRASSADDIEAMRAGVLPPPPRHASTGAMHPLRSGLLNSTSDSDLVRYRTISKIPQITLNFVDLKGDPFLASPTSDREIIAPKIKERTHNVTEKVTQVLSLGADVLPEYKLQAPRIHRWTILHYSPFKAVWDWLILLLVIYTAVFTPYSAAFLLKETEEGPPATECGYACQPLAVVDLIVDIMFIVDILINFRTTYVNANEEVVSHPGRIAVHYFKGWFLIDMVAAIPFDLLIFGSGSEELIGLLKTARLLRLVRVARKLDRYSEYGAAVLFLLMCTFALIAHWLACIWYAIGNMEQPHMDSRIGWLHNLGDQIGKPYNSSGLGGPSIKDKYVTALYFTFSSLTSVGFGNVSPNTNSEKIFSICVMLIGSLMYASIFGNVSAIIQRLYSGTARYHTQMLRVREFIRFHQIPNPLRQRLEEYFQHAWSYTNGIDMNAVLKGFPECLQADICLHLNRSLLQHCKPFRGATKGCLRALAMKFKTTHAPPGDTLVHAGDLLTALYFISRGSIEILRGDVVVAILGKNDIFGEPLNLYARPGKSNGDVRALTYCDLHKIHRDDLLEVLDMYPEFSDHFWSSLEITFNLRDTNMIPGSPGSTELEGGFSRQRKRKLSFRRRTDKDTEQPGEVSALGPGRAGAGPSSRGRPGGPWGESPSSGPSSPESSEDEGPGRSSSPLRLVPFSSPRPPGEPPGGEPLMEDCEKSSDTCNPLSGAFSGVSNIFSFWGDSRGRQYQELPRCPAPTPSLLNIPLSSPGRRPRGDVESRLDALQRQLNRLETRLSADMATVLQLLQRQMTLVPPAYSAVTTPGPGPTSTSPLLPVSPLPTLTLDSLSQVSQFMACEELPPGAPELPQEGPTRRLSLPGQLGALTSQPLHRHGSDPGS

Compound | hERG current change (%, negative = inhibition) at 10uM [%]
COc1ccc(C(=O)NN2CCCCC2)cc1OC | 4.62
Nc1nn(-c2ccccc2)c(N)c1N=Nc1ccccc1 | -16.4
CCOC(=O)CSc1nnc(NCC(=O)OC)c(=O)[nH]1 | 25.5
Br.CN(C)CCNc1cc(-c2ccncc2)nc2ccccc12 | -22.3
CCN1CCN(C(=O)Nc2cccc(C(F)(F)F)c2)CC1 | 9.24
CC(=C/c1ccccc1)/C=N/NC(=O)c1nnn(-c2nonc2N)c1CN1CCC(C)CC1 | 19.9
Cc1ccc2cc(C(=O)O)c(C)nc2c1 | 11.6
CCOC(=O)COc1cccc2c(=O)n(CC(=O)N3CCCCC3)ccc12 | -2.54
O=C(COC(=O)c1cccnc1Nc1cccc(C(F)(F)F)c1)NCCN1C(=O)CSC1=O | -58.7
Cc1ccc(C)c(NC(=O)COC(=O)CCNC(=O)c2ccco2)c1 | 3.11
Cc1nc(C(=O)NCc2ccccc2)sc1C1(C)CC(c2cccnc2)=NO1 (stereo not drawn) | -16.8
COc1ccc(NC(=O)COC(=O)CC2CC3CCC2C3)c([N+](=O)[O-])c1 (stereo not drawn) | 8.39
CC(=O)Nc1ccc(NC(=O)C(C)OC(=O)CC2CCCC2)cc1 (stereo not drawn) | 1.44
O=C1CSc2ccc(C(=O)N3CCN(c4ccccn4)CC3)cc2N1 | -20.5
O=C(Oc1ccc2c(c1)OCO2)C12CC3CC(CC(C3)C1)C2 | 23
CCc1ccc(NC(=O)C2CCN(S(=O)(=O)c3ccc4[nH]c(=O)ccc4c3)CC2)cc1 | 3.6
CCCCC1(Br)C(=O)N(c2ccccc2)N(c2ccccc2)C1=O | 7.13
N#CC1=C(N)Nc2nc3ccccc3n2C1c1ccc(F)cc1 (stereo not drawn) | 25.6
COc1ccc(C/C(C)=N/NC(=O)c2cccnc2)cc1 | -14.9
CCn1cc(CN2CCC(Oc3ccc(C(=O)N4CCCCC4)cc3)CC2)cn1 | -5.09
O=C(CS(=O)(=O)Cc1ccccc1)NCc1ccco1 | 12.3
Cc1nc(Nc2ccc(S(N)(=O)=O)cc2)sc1C(=O)Nc1ccccc1 | 11.2

Compound | hERG current change (%, negative = inhibition) at 10uM [%]
COc1ccc2cc(C(=O)N3CCc4ccccc43)[nH]c2c1 | 16
COc1ccc2oc(C(=O)Nc3nc(-c4ccccn4)cs3)c(C)c2c1 | 2.33
COc1ccc(C2CC(C(F)(F)F)n3nc(C(=O)O)c(Br)c3N2)cc1 (stereo not drawn) | 20.8
C=CC[n+]1c(C)csc1Nc1ccc(C(=O)O)cc1.[Br-] | 8.51
COc1ccc2cc(C3NC(=O)c4ccccc4N3)c(Cl)nc2c1 (stereo not drawn) | 7.78
Cc1cc2nc(C3CCN(CC4COc5ccccc5O4)CC3)[nH]c2cc1C (stereo not drawn) | -73.9
Cc1cc(C)c(NC(=O)CS(=O)CC(=O)NC2CCCc3ccccc32)c(C)c1 (stereo not drawn) | 13.6
NC(=O)c1ncn([C@@H]2O[C@H](CO)[C@@H](O)[C@H]2O)c1O | 0.565
Cc1c(C)c2ccc(OCC(=O)Nc3nccs3)cc2oc1=O | -20.2
COc1ccc2nc(N(CCN(C)C)C(=O)c3ccc4ccccc4c3)sc2c1.Cl | 5.4
Cc1cc(NC(=O)c2ccc3c(c2)OCO3)ccc1NC(=O)c1ccccc1 | 19.1
Cc1c(C(c2cc(O)ccc2Cl)c2c(C)n(C)n(-c3ccccc3)c2=O)c(=O)n(-c2ccccc2)n1C | 7.78
O=C(Nc1ccc2c(c1)ncn2C1CCCCC1)c1ccco1 | -15.1
COc1cc(/C=C2\C(=N)N3N=C(S(C)(=O)=O)SC3=NC2=O)ccc1OS(=O)(=O)c1ccc(C)cc1 | 6.9
CCCOc1ccc(C(=O)N2CCN(c3ccc(N)cc3Cl)CC2)cc1 | -31.7
Cc1cc(OCCCCCn2ccnc2)cc(C)c1Cl.Cl | -19.2
CCc1ccc(NC(=O)CN(c2ccc(OC)cc2)S(=O)(=O)c2c(C)[nH]c(=O)[nH]c2=O)cc1 | 9.73
O=C(CN1C(=O)c2ccccc2S1(=O)=O)NCc1c(F)cccc1F | 2.88
CCOC(=O)N=Nc1c(O)n(CC(=O)OC)c2ccccc12 | 5.95
CC(=O)c1cccc(NC(=O)c2ccc(NC(=O)CC3SC(N4CCCCC4)=NC3=O)cc2)c1 (stereo not drawn) | 10.3
CCN1CCN(C(c2cccnc2)c2cc(Cl)c3cccnc3c2O)CC1 (stereo not drawn) | -72.4
CCN1CCCC1CNc1ncnc2c1[nH]c1ccc(F)cc12 (stereo not drawn) | -76.6

Compound | hERG current change (%, negative = inhibition) at 10uM [%]
CN(C)CCNC(=O)/C(=C/c1ccc(-c2ccc(Cl)cc2Cl)o1)NC(=O)c1ccccc1 | -55.1
O=C(Nc1nccs1)OCc1ccccc1 | 14.5
Cc1ccc2nc(NC(=O)CN3CCN(c4ccccn4)CC3)sc2c1 | -9.91
COc1cccc(OCc2cc(C(=O)NCCc3cccc(C)n3)no2)c1 | -1.21
COC(=O)c1ccc(CN(c2ccccn2)S(=O)(=O)c2ccccc2)cc1 | 14.1
CN1CCN(c2ccccc2NC(=O)c2ccccc2F)CC1 | -70.8
CN(C)C(=O)/C(=C\c1ccncc1)NC(=O)c1ccccc1 | 3.16
O=C(NC1CCN(S(=O)(=O)c2ccc(F)cc2)CC1)C1CCCCC1 | 2.62
COc1ccc(C2SCC(=O)Nc3c2c(C)nn3-c2ccccc2)cc1 (stereo not drawn) | -7.35
NC1=NC(=O)C(Cc2cc(Cl)ccc2Cl)S1 (stereo not drawn) | 11.8
C/C(=N\NS(=O)(=O)c1cccc([N+](=O)[O-])c1)c1cc2ccccc2o1 | -2.61
CCCC(C)C1(CC)C(=O)NC(=O)N=C1N (stereo not drawn) | -76.5
Cc1c(=O)n(OCc2ccccc2F)c2ccccc2[n+]1[O-] | 9.08
COc1cccc(-c2cc(C(F)(F)F)nc(-n3cc(C)cn3)n2)c1 | -15.3
COc1ccc(Cl)cc1NC(=S)NCCc1ccc(F)cc1 | -2.21
COc1ccc(C)cc1NC(=O)C1CCN(C(=O)c2ccco2)CC1 | 4.94
O=S(=O)(Nc1ncn[nH]1)c1ccc(Cl)cc1 | 1.74
O=C(c1cc(COc2ccc(F)cc2Cl)on1)N1CCc2ccccc2C1 | 14.4
CCOc1ccc(C(=O)NCC(c2cccs2)N(C)C)cc1OCC (stereo not drawn) | -45.6
O=C(Nc1ccc(N2CCN(C(=O)C3CC3)CC2)cc1)c1cccs1 | 2.17
CN(C)c1ccc(C(C(=O)NCC2CCCO2)N(Cc2ccccc2)C(=O)c2snc(C(N)=O)c2N)cc1 (stereo not drawn) | 18.9
CCOc1ccc(OCC(=O)Nc2c3c(nn2C(C)(C)C)CS(=O)(=O)C3)cc1 | 0.297

Compound | hERG current change (%, negative = inhibition) at 10uM [%]
CC(C)(C)C(=O)Nc1ccc(C(=O)CN2C(=O)NC3(CCOc4ccccc43)C2=O)cc1 (stereo not drawn) | -11.6
Cc1cccc(CCNCc2c(C(=O)O)c(C)n(-c3ccccc3)c2C)c1 | 4.31
COc1ccc(C(O)P(=O)(O)CCc2ccccc2)cc1 (stereo not drawn) | -2.85
CC(C)(C)c1ccc(C(=O)Nc2ccc(Cl)cc2)cc1 | -3.08
Cl.c1ccc2c(CN3CCOCC3)csc2c1 | 9.52
Cc1ccnc(NS(=O)(=O)c2ccc(NS(=O)(=O)c3cc(Cl)ccc3Cl)cc2)n1 | 4.09
COc1ccc(-c2cc(C(=O)N3CCCC(C(F)(F)F)C3)c3ccccc3n2)cc1OC (stereo not drawn) | -9.42
COc1ccc(NS(=O)(=O)c2cc(Br)cc3c2N(C(C)=O)CC3)cc1 | 33
CCN1C(=O)/C(=C/c2ccc(N3CCCC3)cc2)NC1=S | -4.28
CC(C#N)Sc1ccc(S(=O)(=O)N2CCCC2)cn1 (stereo not drawn) | -14
CC(=O)Nc1cccc(NS(=O)(=O)c2ccccc2[N+](=O)[O-])c1 | 11.9
COc1cccc(C2=NOC(C(=O)NCCCn3ccnc3)C2)c1 (stereo not drawn) | 4.03
COC(=O)Oc1ccc(/C=N/NC(=O)CN(c2ccccc2Br)S(C)(=O)=O)cc1OC | -48.3
Nc1nc(CN2CCN(c3ccccc3F)CC2)nc(N2CCCc3ccccc32)n1 | -11.7
CCCC(=O)Nc1ccccc1-c1nnc(SC)[nH]c1=O | -1.26
COC(=O)c1ccc(CSc2nc3ccccc3c(=O)n2-c2ccc(OC)c(OC)c2)o1 | 11.9
Cc1csc(NC(=O)CSC2=NS(=O)(=O)c3ccccc3N2)n1 | 9.66
Cc1cc(C)c(C(=O)NC2CCCc3c2cnn3-c2ccc(C)c(C)c2)c(=O)[nH]1 (stereo not drawn) | 1.56
CC1=C(C(N)=O)C(c2ccc(Br)cc2)n2ncnc2N1 (stereo not drawn) | 14
N#Cc1ccc2nc3c(nc2c1)CCCC3 | -39.2
COC(=O)C1=C(c2cccc(OCc3ccccc3)c2)C[C@@H]2CC[C@H]1N2C(=O)NCCOc1ccc(OC)cc1 | -8.15
